Assay results taken from the supplement of paper PMC12462457.
Structures can show the parent of a compound that is named as a salt. ± gives the standard deviation of the averaged measurements. The list shows a part of the results.

System: OVCAR8
Experiment: cell count relative to DMSO vehicle (fold change); OVCAR8 is a high-grade serous ovarian cancer line and CX-5461 an RNA polymerase I inhibitor; higher = more surviving senescent cells (less killing)
Conditions: senescence inducer: CX-5461 3 µM 48 h, then 6 d recovery (CX senescent), exposure time 24 h

Structure (SMILES) | cell count (compound dose 1 µM) | cell count (compound dose 5 µM)
C=CCSSSCC=C | 1.21 ± 0.38 | 1.07 ± 0.15
Cc1cc(C(C)(C)C)c(O)c(C(C)(C)C)c1 | 1.09 ± 0.037 | 1.17 ± 0.16
C/C(=C\c1csc(C)n1)[C@@H]1C[C@@H]2O[C@]2(C)CCC[C@H](C)[C@H](O)[C@@H](C)C(=O)C(C)(C)[C@@H](O)CC(=O)N1 [Ixabepilone] | 0.973 ± 0.1 | 1.06 ± 0.28
C1COC(NC(C2CC2)C2CC2)=N1 [Rilmenidine (hemifumarate)] | 0.987 ± 0.081 | 1.2 ± 0.2
O=C(O)c1cn(C2CC2)c2cc(N3CCNCC3)c(F)cc2c1=O | 1.17 ± 0.22 | 1.01 ± 0.13
CN1CC(=O)N2[C@H](c3ccc4c(c3)OCO4)c3[nH]c4ccccc4c3C[C@@H]2C1=O [Tadalafil] | 1.1 ± 0.094 | 1.02 ± 0.12
CCN(C(=O)c1c(O)c2c(Cl)cccc2n(C)c1=O)c1ccccc1 [Laquinimod] | 1.07 ± 0.15 | 1.02 ± 0.059
CC(NC(=O)c1ccccc1/N=C/c1c(O)ccc2ccccc12)c1ccccc1 (stereo not given) [Sirtinol] | 1 ± 0.12 | 1.14 ± 0.086
O=C(Nc1nc2ccc(NC(=O)C34CC5CC(CC(C5)C3)C4)cc2s1)c1ccccc1 | 1.03 ± 0.018 | 1.03 ± 0.071
CCOC(=O)c1cnc2ccc(-c3cncc(NS(=O)(=O)c4ccccc4)c3)cn12 | 1.06 ± 0.089 | 0.485 ± 0.0057
COc1cc2cc(c1Cl)N(C)C(=O)CC(O)C1(C)OC1C(C)C1CC(O)(NC(=O)O1)C(OC)/C=C/C=C(\C)C2 (stereo not given) [Maytansinol] | 1.11 ± 0.063 | 1.01 ± 0.076
COc1cc(C(=O)N2CCC(N3CCN(C)CC3)CC2)ccc1Nc1ncc2c(n1)N(C)c1ccccc1C(=O)N2C | 1.07 ± 0.17 | 1.02 ± 0.033
Cc1[nH]c2ccc(F)cc2c1-c1nc2c3cccnc3c3ncccc3c2[nH]1 | 1.17 ± 0.12 | 1.101 ± 0.0035
Cc1ccc(-c2cn3c4c(sc3n2)CCCC4)cc1 [Pifithrin-β (hydrobromide)] | 1.03 ± 0.093 | 1.17 ± 0.16
CC(C)=CCC[C@](C)(O)[C@H]1CC[C@]2(C)[C@@H]1[C@H](O)C[C@@H]1[C@@]3(C)CC[C@H](O)C(C)(C)[C@@H]3CC[C@]12C [(20S)-Protopanaxadiol] | 1.05 ± 0.037 | 1.04 ± 0.1
CCCCCCCC(=O)/C=C/c1ccc(O)c(OC)c1 [(E)-[6]-Dehydroparadol] | 1.01 ± 0.0021 | 1.13 ± 0.1
Cc1cc2nc3c(=O)[nH]c(=O)nc-3n(C)c2cc1C=O | 1.02 ± 0.16 | 1 ± 0.042
O=C(O)C(=O)O.[NH-][C@@H]1CCCC[C@H]1[NH-].[Pt+2] | 1.1 ± 0.085 | 1.01 ± 0.084
COc1ccc(Cn2ccc3ccc(C(=O)NO)cc32)cc1 | 0.913 ± 0.08 | 1.088 ± 0.0014
CC#CC(=O)N1CC[C@@H](n2c(=O)n(-c3ccc(Oc4ccccc4)cc3)c3c(N)ncnc32)C1 [Tirabrutinib] | 1.16 ± 0.27 | 1.08 ± 0.35
CC1(C)O[C@H]2CC(=O)OC[C@]23[C@H]2CC[C@@]4(C)[C@H](c5ccoc5)OC(=O)[C@H]5O[C@]54[C@]2(C)C(=O)C[C@@H]13 [Limonin] | 1.09 ± 0.031 | 1.18 ± 0.081
CO[C@H]1/C=C\C=C(/C)C(=O)NC2=CC(=O)C(NCCN(C)C)=C(C[C@@H](C)C[C@H](OC)[C@H](O)[C@@H](C)/C=C(\C)[C@@H]1OC(N)=O)C2=O [Alvespimycin (hydrochloride)] | 1.09 ± 0.013 | 1.002 ± 0.0028

Structure (SMILES) | cell count (compound dose 1 µM) | cell count (compound dose 5 µM)
CC1=NN(c2ccccc2)C(=O)C1 | 1.07 ± 0.16 | 0.995 ± 0.18
CC(=O)c1ccc2c(c1)c1cc(C(C)=O)ccc1n2CCNC(C)C [CBL0137 hydrochloride] | 1.17 ± 0.14 | 0.852 ± 0.013
O=C(/C=C/c1ccc(O)cc1)CC(=O)/C=C/c1ccc(O)cc1 [Bisdemethoxycurcumin] | 1.12 ± 0.05 | 1.14 ± 0.1
CN[C@@H](C)C(=O)N[C@H]1CN(C(=O)CC(C)C)CC[C@H]2CC[C@@H](C(=O)NC(c3ccccc3)c3ccccc3)N2C1=O [Xevinapant] | 0.969 ± 0.055 | 0.81 ± 0.018
Cc1cc(=O)[nH]c(=S)[nH]1 | 1.0425 ± 0.00071 | 1.13 ± 0.072
CC[C@]1(O)C[C@H]2CN(CCc3c([nH]c4ccccc34)[C@@](C(=O)OC)(c3cc4c(cc3OC)N(C=O)[C@H]3[C@@](O)(C(=O)OC)[C@H](OC(C)=O)[C@]5(CC)C=CCN6CC[C@]43[C@@H]65)C2)C1 [Vincristine (sulfate)] | 0.975 ± 0.059 | 0.7 ± 0.069
CC(=O)Nc1ccc(C(=O)Nc2ccc(F)cc2N)cc1 | 1.19 ± 0.42 | 1.36 ± 0.44
Oc1ccc(/C=C/c2cc(O)cc(O)c2)cc1 | 1.11 ± 0.1 | 1.1 ± 0.063
CCN(CC)CCNC(=O)c1c(C)[nH]c(/C=C2\C(=O)Nc3ccc(F)cc32)c1C [Sunitinib Malate] | 1.15 ± 0.18 | 0.908 ± 0.24
CCN(CC)CCNC(=O)c1c(C)[nH]c(/C=C2\C(=O)Nc3ccc(F)cc32)c1C [Sunitinib] | 1.08 ± 0.16 | 0.969 ± 0.017
CC(C)c1cc2c(cc1S(=O)(=O)O)[C@@]1(C)CCC[C@@](C)(C(=O)O)[C@@H]1CC2 [Ecabet (sodium)] | 1.06 ± 0.12 | 1.01 ± 0.073
Nc1nc2[nH]cnc2c(=S)[nH]1 | 1.109 ± 0.011 | 1.1 ± 0.059
O=C(/C=C/c1ccc(O)c(O)c1)O[C@@H]1[C@H](O)C[C@@](O)(C(=O)O)C[C@H]1OC(=O)/C=C/c1ccc(O)c(O)c1 (stereo in doubt) [3,4-Dicaffeoylquinic acid] | 1.16 ± 0.19 | 1.1 ± 0.13
CC(NC(=O)C(Cc1ccccc1)NC(=O)OCc1ccccc1)C(=O)CF (stereo not given) | 1.11 ± 0.041 | 1.13 ± 0.15
C=CCc1cccc(/C=N/NC(=O)CN2CCN(Cc3ccccc3)CC2)c1O | 1.1 ± 0.081 | 1.19 ± 0.12
Cc1cc(C)c(-c2n[nH]c(C)c2C)cc1C(=O)N1CC(c2ccc(C#N)cc2)C1 | 1.02 ± 0.1 | 1.09 ± 0.11
CC(C(=O)O)c1ccc(-c2ccccc2)c(F)c1 (stereo not given) | 0.928 ± 0.18 | 1.11 ± 0.28
COc1cc2c(N3CCN(C(=O)Nc4ccc(OC(C)C)cc4)CC3)ncnc2cc1OCCCN1CCCCC1 [Tandutinib] | 1.05 ± 0.12 | 1.01 ± 0.15
Oc1cc(O)c2c(c1)O[C@H](c1ccc(O)c(O)c1)[C@H](O)C2 [(-)-Epicatechin] | 1.06 ± 0.12 | 1.1 ± 0.2
CC(C)C[C@H](NC(=O)[C@@H](NC(=O)c1cccc(-c2ccccc2)n1)[C@@H](C)O)B(O)O [Delanzomib] | 1.18 ± 0.29 | 1.34 ± 0.12
CNC(=O)c1cc(Oc2ccc(NC(=O)Nc3cc(C(C)(C)C)nn3-c3ccc4ncccc4c3)c(F)c2)ccn1 [Rebastinib (DCC-2036)] | 1.34 ± 0.19 | 1.25 ± 0.22
COc1cc(/C=C/c2ccc(NC(=O)/C=C/c3cc(OC)c(OC)c(OC)c3)cc2)cc(OC)c1 | 1.19 ± 0.22 | 1.097 ± 0.0035

Structure (SMILES) | cell count (compound dose 1 µM) | cell count (compound dose 5 µM)
CC(C)=CCc1c(O)ccc(C(=O)/C=C/c2ccc(O)cc2)c1O [Isobavachalcone] | 1.09 ± 0.018 | 1.04 ± 0.073
COc1ccc(-c2cc(=O)c3c(O)c(OC)c(O[C@@H]4O[C@H](CO[C@@H]5O[C@@H](C)[C@H](O)[C@@H](O)[C@H]5O)[C@@H](O)[C@H](O)[C@H]4O)cc3o2)cc1 | 1.15 ± 0.19 | 1.06 ± 0.12
O=C1N=C(N2CCN(CCO)CC2)S/C1=C\c1ccc(-c2ccccc2)cc1 | 0.992 ± 0.16 | 1.19 ± 0.17
CC1(C)C=Cc2cc(CCn3c4ccccc4c4ccccc43)cc(C=O)c2O1 | 1.1 ± 0.033 | 1.04 ± 0.17
COc1cc2c(=O)c(-c3ccc(O)cc3)coc2cc1O [Glycitein] | 0.554 ± 0.0078 | 0.59 ± 0.016
C/C=C1\C(=O)C[C@H]2[C@@H]3CCC4=CC(=O)CC[C@]4(C)[C@H]3CC[C@]12C [Guggulsterone] | 1.26 ± 0.21 | 1.08 ± 0.12
Nc1ccn([C@@H]2C(F)=C(CO)[C@@H](O)[C@H]2O)c(=O)n1 | 1.15 ± 0.19 | 1.15 ± 0.19
CCC[C@H](C)Oc1nc(N)c2[nH]c(=O)n(CCCCCN3CCCCC3)c2n1 | 1.16 ± 0.23 | 1.11 ± 0.26
NC(=O)c1cccc2cn(-c3ccc([C@@H]4CCCNC4)cc3)nc12 [Niraparib] | 1.04 ± 0.17 | 1.15 ± 0.083
NC(=O)c1cccc2cn(-c3ccc([C@@H]4CCCNC4)cc3)nc12 [Niraparib (MK-4827) tosylate] | 1.1115 ± 0.00071 | 0.848 ± 0.054
CO[C@@H]1[C@H](N(C)C(=O)c2ccccc2)C[C@H]2O[C@]1(C)n1c3ccccc3c3c4c(c5c6ccccc6n2c5c31)C(=O)NC4 [Midostaurin] | 0.733 ± 0.0085 | 0.652 ± 0.14
CC[C@H](C)[C@H](NC(=O)OCc1ccccc1)C(=O)N[C@H](C=O)CC(C)C [Z-Ile-Leu-aldehyde] | 1.15 ± 0.11 | 1.1 ± 0.042
CNC(=O)c1cccc(-c2ccc3c(N4CCOC[C@@H]4C)nc(N4CCOC[C@@H]4C)nc3n2)c1 [Vistusertib] | 1.18 ± 0.34 | 1.1 ± 0.27
CCc1cc(Nc2nccc(-c3c(-c4ccc(OC)c(C(=O)Nc5c(F)cccc5F)c4)nc4ccccn34)n2)c(OC)cc1N1CCC(N2CCN(S(C)(=O)=O)CC2)CC1 | 1 ± 0.017 | 0.697 ± 0.11
COCCOc1cnc2ccn([C@H](C)c3nnc4c(F)cc(-c5cnn(C)c5)cn34)c(=O)c2c1 | 0.93 ± 0.031 | 0.9455 ± 0.005
Cc1cc(-c2ncc(-c3cccnc3)cc2/C=C/c2ccccc2)cnc1-c1cccnc1 [Pyridoclax] | 1.14 ± 0.14 | 0.75 ± 0.18
O=C1[C@H](Cc2ccc(O)cc2)N2C(=O)CCN(C(=O)NCc3ccccc3)[C@H]2CN1Cc1cccc2ccccc12 | 1.09 ± 0.11 | 1.13 ± 0.19
COc1ccc(-c2oc3cc(O)cc(O)c3c(=O)c2O)cc1 [Kaempferide] | 0.974 ± 0.034 | 1.07 ± 0.18
C[C@@H]1O[C@@H](O[C@H]2[C@H](O[C@H]3CC[C@]4(C)[C@H]5CC=C6[C@@H]7CC(C)(C)CC[C@]7(C(=O)O)CC[C@@]6(C)[C@]5(C)CC[C@H]4C3(C)C)OC[C@H](O[C@@H]3O[C@H](CO)[C@@H](O)[C@H](O)[C@H]3O)[C@@H]2O)[C@H](O)[C@H](O)[C@H]1O [Hederacolchiside A1] | 1.073 ± 0.0035 | 0.006 ± 0.0085
COC(=O)Nc1nc2cc(C(=O)c3ccccc3)ccc2[nH]1 [Mebendazole] | 1.17 ± 0.15 | 1.18 ± 0.19
CC1C(=O)OC2C(O)C34C5CC(C(C)(C)C)C36C(OC(=O)C6O)OC4(C(=O)O5)C12O (stereo not given) [Ginkgolide B] | 1.1 ± 0.081 | 0.958 ± 0.11
